This test has as its system Pseudomonas aeruginosa. Particulars: Concentration 32 ug.mL-1, ASSAY_TEST Inhibition of Bacterial Growth, detection method Absorption (OD600), MEDIA CAMHB, plate type 384well, NBS, CORNING #3640, time 18 hr.

“And” between values parts separate entries of the source, which are not always exact repeats. Equal values may be shown once. The list shows a part of the results. Potency and affinity values are given separately.

As to `CC#CCN(Cc1ccccc1)c1nc(N)c(C#N)c(-c2ccccc2)c1C#N`, the Inhibition came out at 11.74%.
As to `COc1ccccc1C1c2ccc3ccccc3c2Oc2nc3c(c(N)c21)CCCC3` (configuration not stated), the Inhibition is reported as 32.54%.
Take `COC(=O)C1CCN(Cc2ccccc2)CC1`: the Inhibition amounted to 20.53%.
Regarding `CCCCNNC(=O)c1cc2ccccc2[nH]1`, the Inhibition worked out at 4.89%.
For `NNC(=O)c1cc2ccccc2n1Cc1ccccc1`, the Inhibition is reported as -0.35%.
The same measure, in the same setting: with `COc1cccc(C2c3c(nc4c(c3N)CCCC4)Oc3ccc4ccccc4c32)c1` (configuration not stated) the figure was 38.82%; with `Cl.N#Cc1c(Cl)nc(N)nc1NCCO`, 8.66%; with `CS(=O)(=O)O[C@H]1CC[C@H](OS(C)(=O)=O)CC1`, 24.01%.
In the case of `N#CC1=C(Cl)Oc2c(ccc3ccccc23)C1c1cccc([N+](=O)[O-])c1` (configuration not stated), the Inhibition was -4.99%.
As for `CSC1=NC(=Cc2cn(C)c3ccccc23)C(=O)N1C`, the Inhibition was 13.66%.
For `N#CC1=C(N)NC(=O)CC1c1ccccc1` (configuration not stated), the Inhibition was determined as 19.7%.
As to `C#CCN(C)Cc1cc2cc(OCCCC3CCN(Cc4ccc(OC)c5ncccc45)CC3)ccc2n1C`, the Inhibition is given as -0.76%.
Consider `CCOC(=O)C1=C(C)OC(N)=C(C#N)C1c1ccc(F)cc1` (configuration not stated), for which the Inhibition came to 29.82%.
As to `Cl.ClCCCCCN1CCCCC1`, the Inhibition is reported as 14.93%.
In the case of `N#CC1(Br)C(=N)Oc2ccc3ccccc3c2C1c1ccccc1` (configuration not stated), the Inhibition (32 ug/mL) was 1.54% and 11.09%.
`Cl.ClCCCCN1CCCCC1`: the Inhibition came to 1.16%.
On to `Cc1ccc(C2c3c(nc4c(c3N)CCCC4)Oc3ccc4ccccc4c32)cc1` (configuration not stated), for which the Inhibition is given as 18.1%.
In the case of `Cc1nc(NCc2ccccc2)c2cnn(-c3ccccc3)c2n1`, the Inhibition came to 26.46%.
For the molecule `O=C1OC(c2ccccc2)=NC1=Cc1ccccc1Cl`, the Inhibition came out at 40.75%.
On the same count and under the same terms, with `C=C1CN(C)c2c(C#N)c(-c3ccccc3)c(C#N)c(=N)n21` the figure was -0.89%; with `C=C1CN(C)c2ncc(C#N)c(=N)n21`, 6.99%.
Turning to `Nc1c2c(nc3ccc([N+](=O)[O-])cc13)CCCC2`, the Inhibition is on record as 14.86%.
On to `Cn1c(CNNC(=O)c2ccco2)cc2ccccc21`, for which the Inhibition stood at 2.06%.
In the case of `CC#CCN(Cc1ccccc1)c1nc(N)c(C#N)cc1C#N`, the Inhibition was -0.41%.
For `Cc1ccc(CNNC(=O)c2c[nH]c3ccccc23)cc1`, the Inhibition was 16.69%.
For `Cc1nn(-c2ccccc2)c2nc(C)n3nc(-c4ccccc4)nc3c12`, the Inhibition was found to be 25.08%.
Consider `CCOC(=O)c1cc2c(N)c3c(nc2nc1C)CCCC3`, for which the Inhibition was 17.4%.
With `O=C(NNC(Cc1ccccc1)Cc1ccccc1)c1cc2ccccc2[nH]1`, the Inhibition is on record as 19.79%.
Same read-out and setting: with `Nc1c2c(nc3c1C(c1ccc(O)cc1)c1c(ccc4ccccc14)O3)CCCC2` (configuration not stated) the figure was 34.08%.
Consider `CCOC(=O)c1c(C)nc(/N=N/c2nc(C)c(C(=O)OCC)c(-c3ccccc3)c2C#N)c(C#N)c1-c1ccccc1`, for which the Inhibition is 18.37%.
As to `Br.C#CCNCC`, the Inhibition is on record as -1.53%.
Same read-out and setting: under `Cc1ccc(C2C(C#N)=C(N)Oc3c2ccc2ccccc32)cc1` (configuration not stated) stands 20.41%; under `CCOC(=O)C1=C(C)Nc2nc3c(c(N)c2C1c1cccc(OC)c1)CCCC3` (configuration not stated), -3.28%; under `OCc1cc2ccccc2[nH]1`, 21.95%.
Regarding `Cn1c(CO)cc2cc(OCCCC3CCN(Cc4ccccc4)CC3)ccc21`, the Inhibition is listed as 9.54%.
With `C#CCN(C)c1nc(OC)c(C#N)c(-c2ccccc2)c1C#N`, the Inhibition was 2.05%.
Take `COc1ccc(-c2cc(-c3cc4ccc(OC)cc4nc3Cl)cc(=O)[nH]2)cc1`: the Inhibition is recorded as -1.54%.
Consider `N#CC1=C(Cl)Oc2c(ccc3ccccc23)C1c1ccccc1[N+](=O)[O-]` (configuration not stated), for which the Inhibition is given as 2.78%.
For the molecule `C#CCN(C)c1nc(NCC2CCN(Cc3ccccc3)CC2)c(C#N)c(-c2ccccc2)c1C#N.Cl`, the Inhibition stood at 34.2%.
Same read-out and setting: with `CCOC(=O)C1=C(C)OC(N)=C(C#N)C1c1ccc(OC)cc1` (configuration not stated) the figure was 34.42%; with `CCC(CC)NNC(=O)c1cc2ccccc2n1C`, 18.54%; with `N#CCC(=C(C#N)C#N)c1ccccc1`, 7.89%.
On the same count and under the same terms, with `CC(=O)CCc1c[nH]c2ccccc12` the figure was 43.48%.
Turning to `Cn1c(C(=O)N2CCOCC2)cc2cc(OCCCC3CCN(Cc4ccccc4)CC3)ccc21`, the Inhibition was 8.58%.
On the same count and under the same terms, with `O=C1SC(SCc2ccccc2)=NC1=Cc1ccc2c(c1)OCO2` the figure was -7.63%.
Turning to `N#Cc1cc(C#N)c(NCCO)nc1N`, the Inhibition worked out at 17.26%.
In the case of `C=C1CN(C)c2c(C#N)cc(C#N)c(=N)n21`, the Inhibition was determined as 1.19%.
With `COc1[nH]c(=O)ccc1C#N`, the Inhibition stood at 7.53%.
On to `C#CCN(C)Cc1cc2cc(OCCC3CCN(Cc4ccccc4)CC3)ccc2n1C.Cl`, for which the Inhibition is 5.95%.
For the molecule `O=C(O)/C(=C\c1ccccc1)NC(=O)c1ccccc1`, the Inhibition is listed as 40.01%.
Still for that read-out and setting: with `O=Cc1c(-c2ccc(Br)cc2)nc2ccccn12` the figure was 37.6%; with `CCOC(=O)c1cc2cc(OC)ccc2n1C`, 2.43%.
As for `Cc1ccc2nc(Cl)c(/C=N/C(C)(C)C)cc2c1`, the Inhibition was determined as 4.45%.
Regarding `Cc1ccc2[nH]c(=O)c(C=O)cc2c1`, the Inhibition amounted to 7.63%.
On the same count and under the same terms, under `O=C(N/N=C/c1c[nH]c2ccccc12)c1ccco1` stands 20.62%; under `CC(=O)Oc1cccc(C=C2N=C(c3ccccc3)OC2=O)c1`, 4.25%; under `Clc1ccc(-c2cn3ccccc3n2)cc1`, 19.16%.
Regarding `COc1ccc(-c2cc(-c3cc4ccccc4nc3Cl)cc(=O)[nH]2)cc1`, the Inhibition was found to be 8.12%.
Take `Cc1ccc(C2c3ccc4ccccc4c3Oc3nc4c(c(N)c32)CCCC4)cc1.Cl` (configuration not stated): the Inhibition is 32.3%.
Take `O=C(NNCc1ccco1)c1cc2ccccc2[nH]1`: the Inhibition turned out to be 13.15%.
Take `COc1ccc2c(c1)cc(CO)n2C`: the Inhibition is -3.06%.
`N#Cc1cc(C#N)c(N2CCCC2)nc1N`: the Inhibition worked out at 9.99%.
Same read-out and setting: with `NOC(=O)C1CCN(Cc2ccccc2)CC1` the figure was 28.79%; with `COc1cccc(C2c3ccc4ccccc4c3OC(=NBr)C2(Br)C#N)c1` (configuration not stated), -1.91%; with `C/C(Cc1ccccc1)=N\NC(=O)c1c[nH]c2ccccc12`, 12.42%.
For `CC1(C)OC(=O)C(=Cc2ccc([N+](=O)[O-])cc2)C(=O)O1`, the Inhibition is given as 40.05%.
Turning to `CNCc1cc2ccccc2n1C.Cl`, the Inhibition is reported as 42.1%.
Regarding `N#CC1=C(Cl)Oc2ccc3ccccc3c2C1c1ccccc1` (configuration not stated), the Inhibition stood at 18.65%.
Still for that read-out and setting: under `COc1ccc(C2c3c(ccc4ccccc34)OC(=NBr)C2(Br)C#N)cc1` (configuration not stated) stands -0.59%; under `COc1ccc2c(c1)cc(CN)n2C`, 26.76%.
As to `C#CCNc1nc(N)c(C#N)c(-c2ccccc2)c1C#N`, the Inhibition turned out to be 14.04%.
In the case of `CCOC(=O)c1c(C)[nH]c(=O)c(C#N)c1-c1ccccc1`, the Inhibition stood at 11.5%.
Consider `CC(C)CC(C)NNC(=O)c1cc2ccccc2[nH]1` (configuration not stated), for which the Inhibition is -5.28%.
As for `CC(C)C(=O)N/N=C/c1c[nH]c2ccccc12`, the Inhibition amounted to 43.02%.
For the molecule `Cc1ccc(C2c3ccc4ccccc4c3Oc3nc4c(c(N)c32)CCCC4)cc1` (configuration not stated), the Inhibition is -0.1%.
On the same count and under the same terms, with `N#Cc1cc(C#N)c(NCCC2CCN(Cc3ccccc3)CC2)nc1N` the figure was 8.64%; with `COc1cc(C2C(C#N)=C(N)Oc3c2ccc2ccccc32)ccc1O` (configuration not stated), -11.89%; with `CCOc1nc2nc(CCc3ccccc3)ccc2c(-c2ccccc2)c1C#N`, 11.27%.
The same measure, in the same setting: under `CSC1=NC(=Cc2cn(C(c3ccccc3)(c3ccccc3)c3ccccc3)c3ccccc23)C(=O)N1C` stands -21.17%; under `Cc1nc2c3cnn(-c4ccccc4)c3ncn2n1`, 20.11%; under `CC#CCN(C)Cc1cc2cc(OCc3ccccc3)ccc2n1C.O=C(O)C(=O)O`, 46.42%.
Turning to `COc1ccc(C2C(C#N)=C(N)Oc3ccc4ccccc4c32)cc1OC` (configuration not stated), the Inhibition was 42.73%.
As for `COc1ccc(C2c3ccc4ccccc4c3OC(=NBr)C2(Br)C#N)cc1OC` (configuration not stated), the Inhibition is on record as -3.09%.
In the case of `C#CCN(C)c1nc(NCCC2CCN(Cc3ccccc3)CC2)c(C#N)cc1C#N.Cl`, the Inhibition came out at 20.22%.
On the same count and under the same terms, with `Cn1cc(C=O)c2ccccc21` the figure was 30.5%; with `N#C[C@]1(Br)C(=N)Oc2ccc3ccccc3c2[C@@H]1c1ccc([N+](=O)[O-])cc1`, 7.04%; with `Cc1[nH]c2ccc(OCc3ccccc3)cc2c1C(=O)NN`, 19.45%.
As for `Cl.OCC1CCN(Cc2ccccc2)CC1`, the Inhibition amounted to 20.26%.
Consider `Cc1ccc(-c2c(C#N)c(N)nc3c2S(=O)(=O)OC3(C)C)cc1`, for which the Inhibition came out at 25.27%.
Consider `CCOC(=O)C1=C(C)OC(N)=C(C#N)C1c1ccncc1` (configuration not stated), for which the Inhibition was determined as 3.69%.
On to `CCOC(N)=CC#N`, for which the Inhibition is -10.84%.
The same measure, in the same setting: with `COc1ccc(C2C(C#N)=C(N)Oc3[nH]nc(C)c32)cc1` (configuration not stated) the figure was -9.91%; with `COc1ccc(C2c3c(nc4c(c3N)CCCC4)Oc3ccc4ccccc4c32)cc1` (configuration not stated), 16.04%; with `Nc1ccccc1C(=O)N/N=C/c1c[nH]c2ccccc12`, 37.43%.
On to `C#CCNc1nc(NC2CCN(Cc3ccccc3)CC2)c(C#N)c(-c2ccccc2)c1C#N`, for which the Inhibition was -10.53%.
Consider `COc1ccccc1[C@H]1c2c(ccc3ccccc23)O/C(=N\Br)[C@@]1(Br)C#N`, for which the Inhibition stood at 7.92%.
Still for that read-out and setting: with `C=CCNc1nc(N)c(C#N)cc1C#N` the figure was 19.11%; with `COc1ccc(CNNC(=O)c2cc3ccccc3[nH]2)cc1O`, 19.79%; with `Cl.Cl.Cn1c(CNc2ccccc2)cc2cc(OCCCC3CCN(Cc4ccccc4)CC3)ccc21`, 22.59%.
Same read-out and setting: under `C#CCN(C)Cc1cc2cc(OCOc3ccc4c(c3)cc(CN(C)CC#C)n4C)ccc2n1C` stands 9.21%; under `CN(C)c1nc(N)c(C#N)cc1C#N`, 42.85%.
Take `Nc1nc(N)c(C=O)c(-c2ccccc2)c1C=O`: the Inhibition was -6.56%.
For the molecule `Nc1c2c(nc3c1C(c1c(Cl)cccc1Cl)c1ccc4ccccc4c1O3)CCCC2` (configuration not stated), the Inhibition is recorded as 29.99%.
With `N#CC1(Br)C(=NBr)Oc2ccc3ccccc3c2C1c1cccc([N+](=O)[O-])c1` (configuration not stated), the Inhibition is listed as -8.4%.
`Cn1c(C(=O)O)cc2ccccc21`: the Inhibition is reported as 35.26%.
As for `Cc1nc(Nc2ccccc2)c2c(C)nn(-c3ccccc3)c2n1`, the Inhibition amounted to 14.25%.
On to `N#Cc1cc2c(N)c3c(nc2nc1N1CCCCC1)CCCC3`, for which the Inhibition was determined as 37.52%.

Broadly, the Inhibition is the drop in the measured response relative to a control, in per cent.

(Values after ChEMBL document CHEMBL4513135, “CO-ADD screening of IQOG CSIS (Spain) compounds”.)
